From article PMC6919601, “Identification of Plasmodium dipeptidyl aminopeptidase allosteric inhibitors by high throughput screening” (PLoS ONE, 2019)
The whole screen tested about 110,000 compounds, of which about 230 (0.21%) showed an effect of 50% or more. The list shows a part of the results.

Target: DPAP1 (Plasmodium falciparum, UniProt Q8IIJ9)
Assay: primary screen, percent inhibition; read by cleavage of a fluorogenic dipeptide substrate; higher = more effect of the substance
Parameters: species or system P. falciparum D10 trophozoite lysates; single well
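Also: 30 min substrate incubation versus DMSO and 10 µM JCP410 controls.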

DPAP1, sequence (Q8IIJ9 whole entry, looked up): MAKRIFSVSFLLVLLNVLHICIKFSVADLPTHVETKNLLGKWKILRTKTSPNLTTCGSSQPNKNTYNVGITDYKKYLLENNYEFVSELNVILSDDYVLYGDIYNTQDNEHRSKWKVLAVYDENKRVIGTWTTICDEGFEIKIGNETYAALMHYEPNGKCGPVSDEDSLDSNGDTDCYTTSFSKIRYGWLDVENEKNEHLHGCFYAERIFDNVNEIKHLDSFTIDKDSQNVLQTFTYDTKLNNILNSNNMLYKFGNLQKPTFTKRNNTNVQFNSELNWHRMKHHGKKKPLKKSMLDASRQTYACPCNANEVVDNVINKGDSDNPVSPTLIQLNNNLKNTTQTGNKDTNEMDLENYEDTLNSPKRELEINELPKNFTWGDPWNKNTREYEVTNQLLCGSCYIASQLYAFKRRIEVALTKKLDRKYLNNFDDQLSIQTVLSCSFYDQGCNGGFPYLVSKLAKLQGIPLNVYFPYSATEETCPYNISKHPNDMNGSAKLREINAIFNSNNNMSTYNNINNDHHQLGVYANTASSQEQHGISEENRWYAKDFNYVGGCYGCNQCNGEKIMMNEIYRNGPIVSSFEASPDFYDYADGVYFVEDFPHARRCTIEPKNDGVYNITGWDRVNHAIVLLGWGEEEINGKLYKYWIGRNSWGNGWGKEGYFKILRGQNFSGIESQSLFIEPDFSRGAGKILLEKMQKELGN

Which “% Inhibition @ 10 uM” value does the source give for O=S(=O)(c1ccc(F)cc1)c1cnc(S)nc1O here?
Its value is 1.6%.

With CCOC(=O)/C(C#N)=C1/C=CN(C)C=N1 as the compound, how does the “% Inhibition @ 10 uM” value read?
Its value is 3.6%.

How did the “% Inhibition @ 10 uM” value turn out when Cc1c(-c2cccs2)nc2ccccc2c1C(=O)O was run?
The value was 0.331%.

CCN(CC)C(=O)C1CCCN(C2CC(=O)N(c3ccc(Br)cc3)C2=O)C1 (stereo not drawn) was tested. Which “% Inhibition @ 10 uM” value did it give?
Its value is 4.07%.

With COc1cc2oc(=O)c(CC(=O)N3CCCC3)c(C)c2cc1OC as the compound, how does the “% Inhibition @ 10 uM” value read?
Its value is 2.54%.

Which “% Inhibition @ 10 uM” value does the source give for COc1ccc(/C=C2/SC(c3ccc(C)cc3)=NC2=O)cc1OC here?
Its value is -1.28%.

How did the “% Inhibition @ 10 uM” value turn out when COC(=O)c1cc(S(=O)(=O)N(CC(C)C)CC(C)C)c[nH]1 was run?
Its value is -6.25%.

With COc1ccc(/C(O)=C/C=N/c2ccc(F)cc2)cc1OC as the compound, how does the “% Inhibition @ 10 uM” value read?
Its value is -6.08%.

NS(=O)(=O)c1ccc(NC(=O)CS(=O)(=O)Cc2ccccc2)cc1 was tested. Which “% Inhibition @ 10 uM” value did it give?
The value was 5.48%.

How did the “% Inhibition @ 10 uM” value turn out when O=P(O)(CN1CCCCCC1)C1Cc2ccccc2C1 was run?
The value was 0.0539%.

Which “% Inhibition @ 10 uM” value does the source give for COc1ccc(N2CCN(Cc3ccc(Br)o3)CC2)cc1 here?
The value was 3.16%.

With CCCCOc1ccc(C2=N/C(=C\c3ccc4c(c3)OCO4)C(=O)O2)cc1 as the compound, how does the “% Inhibition @ 10 uM” value read?
Its value is 5.94%.

Cc1c(C(=O)N2CCC3(CC2)OCCO3)sc2ncnc(N3CCN(c4ccccn4)CC3)c12 was tested. Which “% Inhibition @ 10 uM” value did it give?
The value was 2.38%.

Which “% Inhibition @ 10 uM” value does the source give for Cc1nn(-c2ccccc2)c2c1N(CC(=O)N1CCN(C(=O)c3ccco3)CC1)C(=O)CS2 here?
Its value is 1.11%.

Which “% Inhibition @ 10 uM” value does the source give for Oc1cccc(-c2csc3nc4ccccc4n23)c1 here?
Its value is 6.32%.

CCS(=O)(=O)C1=NN2C(=N)/C(=C\c3ccc(OCc4ccccc4F)cc3)C(=O)N=C2S1 was tested. Which “% Inhibition @ 10 uM” value did it give?
The value was -5.22%.

O=C(Cc1csc2ccccc12)NCc1ccccc1 was tested. Which “% Inhibition @ 10 uM” value did it give?
Its value is 3.04%.

For Cc1[nH]c2ccccc2c1CCNCC(C)(C)C, which “% Inhibition @ 10 uM” value is on record?
Its value is -6.36%.

Which “% Inhibition @ 10 uM” value does the source give for CC(NC(=O)C(=O)N1CCCCC1)C(c1cccs1)N1CCOCC1 (stereo not drawn) here?
Its value is 2.34%.

With O=C(Nc1ccccc1Br)c1c(O)nc2ccccc2c1O as the compound, how does the “% Inhibition @ 10 uM” value read?
The value was 4.15%.

Which “% Inhibition @ 10 uM” value does the source give for O=C1CC(Sc2ccccn2)C(=O)N1c1ccc(Br)cc1 (stereo not drawn) here?
Its value is 2.38%.

CCc1nc(C)ccc1OCC(=O)O was tested. Which “% Inhibition @ 10 uM” value did it give?
The value was 4.54%.

Which “% Inhibition @ 10 uM” value does the source give for CCSc1nnc(NC(=O)c2cccn(OCc3cccc(Cl)c3)c2=O)s1 here?
The value was 0.0579%.

With Cc1cc(C(=O)N2CCN(c3ccccn3)CC2)c2c(C)nn(-c3ccccc3)c2n1 as the compound, how does the “% Inhibition @ 10 uM” value read?
The value was -0.0795%.

With O=C(CSc1nc(NCc2ccc3c(c2)OCO3)c2ccccc2n1)c1ccccc1 as the compound, how does the “% Inhibition @ 10 uM” value read?
Its value is -5.31%.

For Cc1ccc(N2C(=S)NC(=O)CC2c2ccccc2)cc1 (stereo not drawn), which “% Inhibition @ 10 uM” value is on record?
The value was 5.73%.

COc1ccc(COC(=O)C2=C(C)NC(=O)CC2c2ccccc2C)cc1 (stereo not drawn) was tested. Which “% Inhibition @ 10 uM” value did it give?
The value was 3.11%.

With Cc1nnc(N2CCC(C(=O)NCc3ccco3)CC2)c2nn(-c3ccc(Cl)cc3)c(C)c12 as the compound, how does the “% Inhibition @ 10 uM” value read?
The value was 4.72%.

Which “% Inhibition @ 10 uM” value does the source give for CCCN1CCC(NCc2ccc(F)cc2)CC1 here?
Its value is 4.28%.

CCOC(=O)c1nc(NCc2ccccc2)c2ccccc2n1 was tested. Which “% Inhibition @ 10 uM” value did it give?
The value was -5.51%.

With CC(C)NC(=O)c1ccccc1NC(=O)CN(c1cccc(F)c1)S(C)(=O)=O as the compound, how does the “% Inhibition @ 10 uM” value read?
The value was 1.03%.

OCCOCCN1CCN(C2CC3CCC2C3)CC1 (stereo not drawn) was tested. Which “% Inhibition @ 10 uM” value did it give?
Its value is -5.11%.

Which “% Inhibition @ 10 uM” value does the source give for COc1cc(C(=O)Nc2sc(C)c(C)c2C(N)=O)cc(OC)c1OC here?
The value was 3.8%.

Which “% Inhibition @ 10 uM” value does the source give for CCOc1ccc(/C=C/c2nc(C#N)c(NCCOC)o2)cc1 here?
The value was 0.895%.

For Cc1c(CN2CCN(C/C=C/c3ccccc3)CC2)c(=O)n(-c2ccccc2)n1C, which “% Inhibition @ 10 uM” value is on record?
The value was -2.03%.

How did the “% Inhibition @ 10 uM” value turn out when CCOc1ccccc1/C=C1\N=C(c2ccc(Cl)c(Cl)c2)OC1=O was run?
The value was -2.6%.

For O=C(NCc1ccc(F)cc1)C1CCC(=O)N1CCc1ccccc1 (stereo not drawn), which “% Inhibition @ 10 uM” value is on record?
Its value is -1.79%.

Which “% Inhibition @ 10 uM” value does the source give for CN1C(=O)C(=Cc2cc(Br)ccc2OCc2ccc(Cl)cc2Cl)C(=O)N(C)C1=O here?
The value was 23.7%.

Which “% Inhibition @ 10 uM” value does the source give for O=C1c2ccccc2C(=O)N1c1ccc(S(=O)(=O)Nc2ccc(F)cc2)cc1 here?
Its value is -1.04%.

For O=C(O)C1Cc2c([nH]c3ccccc23)C(c2cc(Cl)cc(Cl)c2O)N1 (stereo not drawn), which “% Inhibition @ 10 uM” value is on record?
The value was -3.62%.

How did the “% Inhibition @ 10 uM” value turn out when CC(=O)c1cc(-c2ccccc2)n(CC(=O)NCc2ccc(C)cc2)c1C was run?
Its value is 3.07%.

For CO/C(O)=C1/C(C)=NC2=C(C(=O)CC(c3ccc4c(c3)OCO4)C2)C1c1ccc(Br)cc1 (stereo not drawn), which “% Inhibition @ 10 uM” value is on record?
Its value is 2.7%.

With COc1ccc(CCNCc2c(C(=O)O)n(Cc3ccc(F)cc3)c3cc(C)ccc23)cc1OC as the compound, how does the “% Inhibition @ 10 uM” value read?
Its value is 0.16%.

For Cc1ccc(C2CC(C(F)(F)F)n3ncc(C(=O)NCCN4CCOCC4)c3N2)cc1 (stereo not drawn), which “% Inhibition @ 10 uM” value is on record?
The value was 7.93%.

Which “% Inhibition @ 10 uM” value does the source give for O=C(NCc1ccc2c(c1)OCO2)c1ccc(CS(=O)c2ccccc2)o1 (stereo not drawn) here?
The value was 0.458%.

For Cc1c2ccc3ccccc3c2s[n+]1CCCS(=O)(=O)O, which “% Inhibition @ 10 uM” value is on record?
Its value is -4.78%.

For Cc1nnc2ccc(N3CCN(Cc4ccc5c(c4)OCO5)CC3)nn12, which “% Inhibition @ 10 uM” value is on record?
Its value is 2.72%.

For O=C(Cn1ncc2c(=O)oc3ccccc3c21)NCCOC1C2CC3CC(C2)CC1C3 (stereo not drawn), which “% Inhibition @ 10 uM” value is on record?
Its value is 7.39%.

How did the “% Inhibition @ 10 uM” value turn out when CCOc1ccccc1C(=O)N1CCN(c2cccc(Cl)c2)CC1 was run?
The value was 5%.

Cc1cccc(C(=O)Nc2ccccc2C(N)=O)c1 was tested. Which “% Inhibition @ 10 uM” value did it give?
Its value is -5.94%.

Which “% Inhibition @ 10 uM” value does the source give for O=[N+]([O-])c1ccc(Cl)cc1CN1CCC(Cc2ccccc2)CC1 here?
The value was 3.01%.
